Data reported in PubChem BioAssay AID485294 (National Center for Advancing Translational Sciences (NCATS), 2010).
Out of some 370,000 compounds screened, about 150 (0.041%) were called active. Inconclusive means that the source gave no clear call. Such entries were picked first, then a sample of the others. The call rests on the fitted dose curve; in most records, active means well fitted inhibition curve with a large enough effect; inconclusive means small, poorly fitted or top-dose-only effect; inactive means flat fitted curve, though single readings scatter. No potency is given beside an inconclusive call; the fits are too rough.

Biological target: Beta-lactamase (Escherichia coli (strain K12)) (UniProt P00811)
Assay: qHTS Inhibitors of AmpC Beta-Lactamase (assay with detergent); further: nearly all actives have a fitted effect of over 25% in size;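 on activity change, negative = inhibition: 0% = no-compound wells and -100% = no-enzyme wells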
Details: AmpC hydrolysis of nitrocefin, absorbance 480 nm, 0.01% Triton; activity change, negative = inhibition: at 114 µM (top of the series)
Procedure, shortened: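 AmpC (5.3 nM in the dispensed reagent) in 20 mM phosphate pH 7.0 with 0.01% (detergent screen) or 0.0001% Triton X-100 was preincubated with compounds for 15 min at room temperature. Nitrocefin was then added from an 800 uM solution, and hydrolysis was followed at 480 nm.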
Potency means the concentration at half of the fitted maximal effect; tags describe the fitted curve by direction and shape.

Chain of UniProt P00811 (P00811 whole entry, looked up): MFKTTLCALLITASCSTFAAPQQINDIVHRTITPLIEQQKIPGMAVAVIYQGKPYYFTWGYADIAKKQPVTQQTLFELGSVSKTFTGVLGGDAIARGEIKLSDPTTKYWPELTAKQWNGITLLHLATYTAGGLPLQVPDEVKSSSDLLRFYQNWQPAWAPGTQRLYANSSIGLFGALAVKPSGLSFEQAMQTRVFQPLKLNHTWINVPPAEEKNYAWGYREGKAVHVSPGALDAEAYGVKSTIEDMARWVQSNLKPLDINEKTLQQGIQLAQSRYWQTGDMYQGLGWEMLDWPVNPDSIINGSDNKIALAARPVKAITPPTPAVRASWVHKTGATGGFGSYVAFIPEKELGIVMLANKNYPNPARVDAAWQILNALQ

Structure (SMILES)	Potency	activity change, negative = inhibition
CC(NC(=O)NCC1CCCO1)(C(F)(F)F)C(F)(F)F (configuration not stated)	inconclusive [inhibitor, partial curve]	–
O=C(c1cnn(C(=O)CN2CCCC2=O)c1)c1ccccc1O	inconclusive [inhibitor, partial curve, poor fit]	–
C/C(O)=C(\C#N)c1nc2ccccc2[nH]1	inconclusive [inhibitor, single point]	–
CCc1ccc(-n2nc3cc(C)c(N)cc3n2)cc1	–	inactive: 3.94%
CCc1nnc(NC(=O)c2ccc(S(=O)(=O)NCC(C)C)cc2)s1	–	inactive: -1.98%
CCOC(=O)N1CCN(S(=O)(=O)N2CCCC(C(=O)NCc3ccc(F)cc3)C2)CC1 (configuration not stated)	–	inactive: -10.6%
Cc1cc(C)c2sc(N(CCN(C)C)C(=O)c3c(F)cccc3F)nc2c1	–	inactive: 2.88%
CCOC(=O)c1sc(NC(=S)NC(=O)c2ccco2)nc1C	inconclusive [inhibitor, single point]	–
CC(=O)c1cccc(NC(=O)c2cnn3ccccc23)c1	inconclusive [inhibitor, partial curve, poor fit]	–
CCCNC(=O)CS(=O)Cc1nc(-c2ccc(OC)cc2)oc1C (configuration not stated)	inconclusive [inhibitor, partial curve, poor fit]	–
CCN(Cc1ccncc1)C(=O)c1cc(COc2c(C)cccc2C)on1	–	inactive: 5.1%
COc1ccccc1CN(Cc1nc2ccccc2c(=O)[nH]1)S(=O)(=O)c1ccc2ccccc2c1	inconclusive [inhibitor, single point]	–
Cc1csc(NC(=O)c2cccc(Cn3nc(C)c(Br)c3C)c2)n1	inconclusive [inhibitor, full curve, poor fit]	–
N#CC1=C(N)Nc2nc3ccccc3n2C1c1ccc(Cl)cc1 (configuration not stated)	inconclusive [inhibitor, full curve]	–
COc1ccc(Nc2c3c(nc4ccccc24)CCC3)cc1Cl	inconclusive [inhibitor, partial curve, poor fit]	–
Cc1cccc(NC(=O)Cn2c(=O)n(Cc3ccc4c(c3)OCO4)c(=O)c3oc4ccccc4c32)c1C	–	inactive: -0.462%
CSc1ncccc1C(=O)Nc1cccc(C)n1	–	inactive: 3.67%
COC(=O)c1ccc(N2C(=O)CC(N3CCC(O)(c4ccc(Br)cc4)CC3)C2=O)cc1 (configuration not stated)	–	inactive: 0.525%
O=C(CSCc1ccc(Cl)cc1Cl)Nc1nccs1	inconclusive [inhibitor, full curve]	–
CN(C(=O)CC(=O)Nc1ccc2nc3n(c(=O)c2c1)CCCCC3)c1ccccc1F	–	inactive: -9.82%
CCCCSP1(=S)NCCCO1 (configuration not stated)	inconclusive [inhibitor, full curve, poor fit]	–
CCn1c(COc2ccccc2)nnc1SCC(=O)Nc1ccc2c(c1)OCCO2	inconclusive [inhibitor, full curve]	–
CCc1ccc(-n2nc(CO)c(C(=O)NCCOC)n2)cc1	–	inactive: 8.62%
CC1=CC(C)(C)Nc2ccc(OC(=O)CN3C(=O)C4CCCCC4C3=O)cc21 (configuration not stated)	inconclusive [inhibitor, single point]	–

Structure (SMILES)	Potency	activity change, negative = inhibition
CN(C)S(=O)(=O)c1ccc(C(=O)OCc2ccc([N+](=O)[O-])cc2)cc1	inconclusive [inhibitor, single point]	–
COc1ccc(Oc2nc(-c3ccccc3)ncc2C(=O)O)cc1	–	inactive: 0.118%
CCC(=O)n1nc(-c2ccccc2)nc1N	inconclusive [inhibitor, full curve, poor fit]	–
CCc1nnc(NC(=O)c2ccc(Br)o2)s1	inconclusive [inhibitor, full curve, poor fit]	–
O=C(CSc1nc(O)cc(=O)n1-c1ccccc1)NCc1ccccc1	–	inactive: -6.06%
COc1ccc(CCN(C)CCC(=O)Nc2cc(C)ccc2C)cc1OC	–	inactive: 2.3%
COc1cc(CN2CCN(CCOCCO)CC2)cc(OC)c1OC	inconclusive [inhibitor, full curve, poor fit]	–
Cc1cc(N2CCCC2)nc(-c2ccccc2O)n1	–	inactive: -0.5%
CCOC(=O)Cc1nnc2c(Nc3ccc(C)cc3)nc3nonc3n12	inconclusive [inhibitor, full curve]	–
CCc1ccc(N=C2NC(=O)/C(=C/c3cc(OC)c(OC)c(OC)c3)S2)cc1	inconclusive [inhibitor, full curve, poor fit]	–
COc1ccc(-c2[nH]ncc2CNC(C)Cc2ccsc2)c(F)c1 (configuration not stated)	–	inactive: 4.39%
CCCc1cc(C(N)=O)c(NC(=O)c2ccco2)s1	inconclusive [inhibitor, single point]	–
CN(C)CCCN1C(=O)c2cccc3cccc(c23)C1=O	–	inactive: 3.13%
Cc1cccc(-c2nc(CS(=O)CC(=O)N3CCCCC3)c(C)o2)c1 (configuration not stated)	inconclusive [inhibitor, partial curve, poor fit]	–
COc1ccc(NC(=O)CSC2=Nc3ccccc3C3=NC(CC(=O)NCCc4ccccc4)C(=O)N23)cc1 (configuration not stated)	–	inactive: 7.53%
O=C(NCc1ccco1)c1ccc(Cn2c(SCc3ccccc3)nc3cccnc32)cc1	–	inactive: 16.7%
O=C(Cc1cccs1)NCc1cccc(F)c1	inconclusive [inhibitor, full curve, poor fit]	–
CCn1ncc(CNC(=O)CCSc2nc(-c3ccco3)cc(C(F)(F)F)n2)c1C	inconclusive [inhibitor, single point]	–
Cc1ccccc1-n1nc2c(c1NC(=O)CCCl)CSC2	–	inactive: -6.17%
Oc1oc(-c2ccccc2)nc1C=Nc1ccccc1	–	inactive: -5.14%
COCCN1CCN(C(=O)C2CCC(=O)N(Cc3ccc(Cl)cc3)C2)CC1 (configuration not stated)	inconclusive [inhibitor, partial curve]	–
O=[N+]([O-])c1cc([As](=O)(O)O)ccc1O	inconclusive [inhibitor, full curve, poor fit]	–
COc1ccc(/C=N/NC(=S)Nc2ccccc2[N+](=O)[O-])cc1O	–	inactive: -3.68%
CCCCCCn1cc(C(=O)O)c(=O)c2cc(F)c(N3CCN(C)CC3)cc21	inconclusive [inhibitor, full curve, poor fit]	–

Structure (SMILES)	Potency	activity change, negative = inhibition
Cc1ccnc(NC(=O)c2ccccc2NC(=O)c2ccc(Cl)cc2Cl)c1	–	inactive: 0.524%
CCc1ccc(C(=O)NNC(=O)C2CSC3(C)CCC(=O)N23)cc1 (configuration not stated)	inconclusive [inhibitor, partial curve, poor fit]	–
N#Cc1ccccc1Cn1c(=O)n(Cc2ccc(C(=O)NCc3ccco3)cc2)c(=O)c2sccc21	inconclusive [inhibitor, full curve]	–
C/C(=N\S(=O)(=O)c1ccc(C)cc1)NC(=S)Nc1ccccc1	inconclusive [inhibitor, partial curve]	–
Cc1ccccc1-n1nnnc1-c1ccccc1	inconclusive [inhibitor, full curve, poor fit]	–
O=C(Nc1ccc(C(=O)OCc2cc(=O)n3nc(C4CC4)sc3n2)cc1)c1ccccc1	–	inactive: 0.329%
COC(=O)CCCCCc1ccc(C(C)=O)s1	inconclusive [inhibitor, full curve]	–
Cc1cccc(CNC(=O)c2cc3cc(S(=O)(=O)N4CCCCC4)ccc3n2C)c1	–	inactive: -2.03%
Cc1ccc(S(=O)(=O)N2CCOCC2)cc1NC(=O)CN1CCN(C)CC1	–	inactive: -1.18%
CCN1CCN(CC(=O)N2N=C(c3cccs3)CC2c2ccc(OC)c(OC)c2)C(=O)C1=O (configuration not stated)	inconclusive [inhibitor, partial curve]	–
COc1ccc(C)cc1NC(=O)c1ccc(CN2CCc3ccccc3C2)cc1	–	inactive: -13.9%
CC(OC(=O)CN1C(=O)NC2(CCCC2)C1=O)C(=O)c1ccc(C(C)(C)C)cc1 (configuration not stated)	inconclusive [inhibitor, partial curve, poor fit]	–
C[C@H]1c2cccc(O)c2C(O)=C2C(=O)C3(O)C(O)=C(C(N)=O)C(=O)[C@@H](N(C)C)[C@@H]3[C@@H](O)[C@@H]21 (some centres not stated)	inconclusive [inhibitor, full curve]	–
CCN(CC(=O)Nc1c(F)cccc1F)C(=O)C1CCN(S(=O)(=O)c2ccc(C)cc2C)CC1	inconclusive [inhibitor, full curve]	–
Nc1nc(-c2ccccc2)c(N=Nc2ccccc2Cl)s1	inconclusive [inhibitor, full curve]	–
O=C(O)CCC(=O)Nc1ccc(N=Nc2ccccc2)cc1	–	inactive: -9.4%
CC(C)(C)[C@@H]1CCC(=O)N(CC[C@H](N=[N+]=[N-])c2ccccc2)CC1	inconclusive [inhibitor, partial curve, poor fit]	–
C=C(C)CSc1nc(N)c2c3c(sc2n1)CCC3	inconclusive [inhibitor, partial curve, poor fit]	–
Cc1cccc(OCC(O)Cn2c(NCCCOC(C)C)nc3c2c(=O)[nH]c(=O)n3C)c1 (configuration not stated)	inconclusive [inhibitor, full curve, poor fit]	–
CCOc1ccc(C(=O)NCc2ccccc2)cc1Br	inconclusive [inhibitor, full curve, poor fit]	–
O=C(Nc1ccc2c(c1)CCCN2C(=O)c1cccs1)c1ccc(F)c(F)c1	–	inactive: 12%
Oc1ccc(C(c2nnnn2CCc2ccccc2)N2CCN(c3nc4ccccc4s3)CC2)cc1 (configuration not stated)	–	inactive: -13.8%
COc1ccccc1C(=O)OCC(=O)Nc1ccc(OC(F)F)cc1	inconclusive [inhibitor, partial curve, poor fit]	–
CCC(C)NC(=O)c1ccccc1NC(=O)C1COc2ccccc2O1 (configuration not stated)	–	inactive: 7.09%
